Some of the results follow.
Experiments:
Experiment in all cases: glycan array binding signal (z-score within array); higher = stronger binding
Conditions in all cases: glycan notation: IUPAC condensed, linker removed
[1] = target: Gal(b1-2)Gal
In short: (§1)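 Glycan array binding is given as a within-array Z-score, which can be read as non-binding when negative. The arrays, 3228 of them, came from the Consortium for Functional Glycomics database and were retained only where the protein sequence was available. Z-scores were averaged across arrays of the same protein sequence at different concentrations or buffers and across linkers.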

[2] = target: Gal(b1-3)Gal
In short: as §1

[3] = target: Gal(b1-3)Gal(b1-4)GlcNAc
In short: as §1

[4] = target: Gal(b1-3)GalNAc
In short: as §1

[5] = target: Gal(b1-3)GalNAc(b1-3)Gal(a1-4)Gal(b1-4)Glc
In short: as §1

[6] = target: Gal(b1-3)GalNAc(b1-4)Gal(b1-4)Glc
In short: as §1

[7] = target: Gal(b1-3)GalNAc(b1-4)[Neu5Ac(a2-3)]Gal(b1-4)Glc
In short: as §1

[8] = target: Gal(b1-3)GlcNAc
In short: as §1

[9] = target: Gal(b1-3)GlcNAc(b1-2)Man(a1-3)[Gal(b1-3)GlcNAc(b1-2)Man(a1-6)]Man(b1-4)GlcNAc(b1-4)GlcNAc
In short: as §1

[10] = target: Gal(b1-3)GlcNAc(b1-3)Gal(b1-3)GlcNAc
In short: as §1

[11] = target: Gal(b1-3)GlcNAc(b1-3)Gal(b1-4)Glc
In short: as §1

[12] = target: Gal(b1-3)GlcNAc(b1-3)Gal(b1-4)GlcNAc
In short: as §1

[13] = target: Gal(b1-3)[Fuc(a1-4)]GlcNAc
In short: as §1

[14] = target: Gal(b1-3)[Fuc(a1-4)]GlcNAc(b1-3)Gal(b1-3)[Fuc(a1-4)]GlcNAc
In short: as §1

[15] = target: Gal(b1-3)[Fuc(a1-4)]GlcNAc(b1-3)Gal(b1-4)GlcNAc
In short: as §1

[16] = target: Gal(b1-3)[Fuc(a1-4)]GlcNAc(b1-3)Gal(b1-4)[Fuc(a1-3)]GlcNAc
In short: as §1

[17] = target: Gal(b1-3)[GlcNAc(b1-6)]GalNAc
In short: as §1

[18] = target: Gal(b1-3)[Neu5Ac(a2-6)]GalNAc
In short: as §1

[19] = target: Gal(b1-3)[Neu5Ac(a2-6)]GlcNAc(b1-6)Gal(b1-4)Glc
In short: as §1

[20] = target: Gal(b1-3)[Neu5Ac(b2-6)]GalNAc
In short: as §1

[21] = target: Gal(b1-4)GalNAc(a1-3)[Fuc(a1-2)]Gal(b1-4)GlcNAc
In short: as §1

[22] = target: Gal(b1-4)GalNAc(b1-3)[Fuc(a1-2)]Gal(b1-4)GlcNAc
In short: as §1

[23] = target: Gal(b1-4)Glc
In short: as §1

[24] = target: Gal(b1-4)Glc6S
In short: as §1

[25] = target: Gal(b1-4)GlcNAc
In short: as §1

[26] = target: Gal(b1-4)GlcNAc(a1-6)Gal(b1-4)GlcNAc
In short: as §1

[27] = target: Gal(b1-4)GlcNAc(b1-2)Man(a1-3)[Gal(b1-4)GlcNAc(b1-2)Man(a1-6)]Man(b1-4)GlcNAc(b1-4)GlcNAc
In short: as §1

[28] = target: Gal(b1-4)GlcNAc(b1-3)Gal(b1-3)GlcNAc
In short: as §1

[29] = target: Gal(b1-4)GlcNAc(b1-3)Gal(b1-4)Glc
In short: as §1

[30] = target: Gal(b1-4)GlcNAc(b1-3)Gal(b1-4)GlcNAc
In short: as §1

[31] = target: Gal(b1-4)GlcNAc(b1-3)Gal(b1-4)GlcNAc(b1-3)Gal(b1-4)GlcNAc
In short: as §1

[32] = target: Gal(b1-4)GlcNAc(b1-3)Gal(b1-4)[Fuc(a1-3)]GlcNAc(b1-3)Gal(b1-4)[Fuc(a1-3)]GlcNAc
In short: as §1

[33] = target: Gal(b1-4)GlcNAc(b1-3)GalNAc
In short: as §1

[34] = target: Gal(b1-4)GlcNAc(b1-3)[Gal(b1-4)GlcNAc(b1-6)]Gal(b1-4)GlcNAc
In short: as §1

[35] = target: Gal(b1-4)GlcNAc(b1-3)[GlcNAc(b1-6)]Gal(b1-4)GlcNAc
In short: as §1

[36] = target: Gal(b1-4)GlcNAc(b1-6)Gal(b1-4)GlcNAc
In short: as §1

[37] = target: Gal(b1-4)GlcNAc(b1-6)Gal(b1-4)GlcNAc(b1-6)GalNAc
In short: as §1

[38] = target: Gal(b1-4)GlcNAc(b1-6)GalNAc
In short: as §1

[39] = target: Gal(b1-4)GlcNAc(b1-6)[Gal(b1-3)]GalNAc
In short: as §1

[40] = target: Gal3S(b1-3)GalNAc
In short: as §1

[41] = target: Gal3S(b1-3)GlcNAc
In short: as §1

[42] = target: Gal3S(b1-3)[Fuc(a1-4)]GlcNAc
In short: as §1

[43] = target: Gal3S(b1-4)Glc
In short: as §1

[44] = target: Gal3S(b1-4)Glc6S
In short: as §1

[45] = target: Gal3S(b1-4)GlcNAc
In short: as §1

[46] = target: Gal3S(b1-4)GlcNAc6S
In short: as §1

[47] = target: Gal3S(b1-4)[Fuc(a1-3)]Glc
In short: as §1

[48] = target: Gal3S4S(b1-4)GlcNAc
In short: as §1

[49] = target: Gal3S6S(b1-4)GlcNAc
In short: as §1

[50] = target: Gal3S6S(b1-4)GlcNAc6S
In short: as §1

[51] = target: Gal4S(b1-4)GlcNAc
In short: as §1

[52] = target: Gal4S6S(b1-4)GlcNAc
In short: as §1

[53] = target: Gal6S(b1-4)Glc
In short: as §1

[54] = target: Gal6S(b1-4)Glc6S
In short: as §1

[55] = target: Gal6S(b1-4)GlcNAc
In short: as §1

[56] = target: Gal6S(b1-4)GlcNAc6S
In short: as §1

[57] = target: GalNAc(a1-3)Gal
In short: as §1

[58] = target: GalNAc(a1-3)GalNAc
In short: as §1

[59] = target: GalNAc(b1-3)Gal
In short: as §1

[60] = target: GalNAc(b1-3)Gal(a1-4)Gal(b1-4)GlcNAc
In short: as §1

B1: Factor H (Homo sapiens), P08603 (protein)
chain: MRLLAKIICLMLWAICVAEDCNELPPRRNTEILTGSWSDQTYPEGTQAIYKCRPGYRSLGNVIMVCRKGEWVALNPLRKCQKRPCGHPGDTPFGTFTLTGGNVFEYGVKAVYTCNEGYQLLGEINYRECDTDGWTNDIPICEVVKCLPVTAPENGKIVSSAMEPDREYHFGQAVRFVCNSGYKIEGDEEMHCSDDGFWSKEKPKCVEISCKSPDVINGSPISQKIIYKENERFQYKCNMGYEYSERGDAVCTESGWRPLPSCEEKSCDNPYIPNGDYSPLRIKHRTGDEITYQCRNGFYPATRGNTAKCTSTGWIPAPRCTLKPCDYPDIKHGGLYHENMRRPYFPVAVGKYYSYYCDEHFETPSGSYWDHIHCTQDGWSPAVPCLRKCYFPYLENGYNQNYGRKFVQGKSIDVACHPGYALPKAQTTVTCMENGWSPTPRCIRVKTCSKSSIDIENGFISESQYTYALKEKAKYQCKLGYVTADGETSGSITCGKDGWSAQPTCIKSCDIPVFMNARTKNDFTWFKLNDTLDYECHDGYESNTGSTTGSIVCGYNGWSDLPICYERECELPKIDVHLVPDRKKDQYKVGEVLKFSCKPGFTIVGPNSVQCYHFGLSPDLPICKEQVQSCGPPPELLNGNVKEKTKEEYGHSEVVEYYCNPRFLMKGPNKIQCVDGEWTTLPVCIVEESTCGDIPELEHGWAQLSSPPYYYGDSVEFNCSESFTMIGHRSITCIHGVWTQLPQCVAIDKLKKCKSSNLIILEEHLKNKKEFDHNSNIRYRCRGKEGWIHTVCINGRWDPEVNCSMAQIQLCPPPPQIPNSHNMTTTLNYRDGEKVSVLCQENYLIQEGEEITCKDGRWQSIPLCVEKIPCSQPPQIEHGTINSSRSSQESYAHGTKLSYTCEGGFRISEENETTCYMGKWSSPPQCEGLPCKSPPEISHGVVAHMSDSYQYGEEVTYKCFEGFGIDGPAIAKCLGEKWSHPPSCIKTDCLSLPSFENAIPMGEKKDVYKAGEQVTYTCATYYKMDGASNVTCINSRWTGRPTCRDTSCVNPPTVQNAYIVSRQMSKYPSGERVRYQCRSPYEMFGDEEVMCLNGNWTEPPQCKDSTGKCGPPPPIDNGDITSFPLSVYAPASSVEYQCQNLYQLEGNKRITCRNGQWSEPPKCLHPCVISREIMENYNIALRWTAKQKLYSRTGESVEFVCKRGYRLSSRSHTLRTTCWDGKLEYPTCAKR
**Q.** What does the source list for B1?
**A.** glycan array binding signal (z-score) [1]: -0.341; glycan array binding signal (z-score) [2]: 0.204; glycan array binding signal (z-score) [3]: -0.076; glycan array binding signal (z-score) [4]: -0.343; glycan array binding signal (z-score) [5]: -0.456; glycan array binding signal (z-score) [6]: 0.224; glycan array binding signal (z-score) [7]: -0.086; glycan array binding signal (z-score) [8]: 0.497; glycan array binding signal (z-score) [9]: -0.48; glycan array binding signal (z-score) [10]: 1.31; glycan array binding signal (z-score) [11]: 0.192; glycan array binding signal (z-score) [12]: -0.154; glycan array binding signal (z-score) [13]: 0.373; glycan array binding signal (z-score) [14]: -0.459; glycan array binding signal (z-score) [15]: 0.011; glycan array binding signal (z-score) [16]: -0.617; glycan array binding signal (z-score) [17]: -0.403; glycan array binding signal (z-score) [18]: -0.315; glycan array binding signal (z-score) [19]: -0.265; glycan array binding signal (z-score) [20]: -0.367; glycan array binding signal (z-score) [21]: -0.392; glycan array binding signal (z-score) [22]: 1.06; glycan array binding signal (z-score) [23]: -0.481; glycan array binding signal (z-score) [24]: -0.221; glycan array binding signal (z-score) [25]: -0.161; glycan array binding signal (z-score) [26]: -0.37; glycan array binding signal (z-score) [27]: -0.677; glycan array binding signal (z-score) [28]: -0.455; glycan array binding signal (z-score) [29]: -0.248; glycan array binding signal (z-score) [30]: 0.317; glycan array binding signal (z-score) [31]: -0.576; glycan array binding signal (z-score) [32]: -0.383; glycan array binding signal (z-score) [33]: -0.538; glycan array binding signal (z-score) [34]: -0.173; glycan array binding signal (z-score) [35]: -0.625; glycan array binding signal (z-score) [36]: -0.316; glycan array binding signal (z-score) [37]: -0.599; glycan array binding signal (z-score) [38]: -0.336; glycan array binding signal (z-score) [39]: -0.537; glycan array binding signal (z-score) [40]: 0.19; glycan array binding signal (z-score) [41]: 1.36; glycan array binding signal (z-score) [42]: 0.776; glycan array binding signal (z-score) [43]: 1.64; glycan array binding signal (z-score) [44]: 0.397; glycan array binding signal (z-score) [45]: 0.133; glycan array binding signal (z-score) [46]: 0.079; glycan array binding signal (z-score) [47]: -0.131; glycan array binding signal (z-score) [48]: -0.168; glycan array binding signal (z-score) [49]: -0.417; glycan array binding signal (z-score) [50]: 11.8; glycan array binding signal (z-score) [51]: -0.153; glycan array binding signal (z-score) [52]: -0.543; glycan array binding signal (z-score) [53]: 1.34; glycan array binding signal (z-score) [54]: 0.498; glycan array binding signal (z-score) [55]: 0.563; glycan array binding signal (z-score) [56]: -0.135; glycan array binding signal (z-score) [57]: -0.188; glycan array binding signal (z-score) [58]: -0.2; glycan array binding signal (z-score) [59]: -0.083; glycan array binding signal (z-score) [60]: 0.024

— the supplement of paper PMC8728848
